Assay results as given in PubChem BioAssay AID1956 (SRMLSC, 2009).
This is one part of the list. Shown are side measurements of this screen, not its main read-out; they come without a call.

test: compounds boosting herpes simplex virus growth – fold increase, host cell viability (AID 1956); conditions: HSV replication augmentation in cells; fold increase: measured here: primary screen fold increase 10 uM, at 10 µM, stronger effect = higher value; viability: measured here: host cell viability series, at 25 µM, stronger effect = lower value; note: tested in PC3 cells

SMILES | fold increase | viability [%]
CCCN(CCC)S(=O)(=O)c1ccc(C(=O)OCCN2C(=O)c3cccc4c(N5CCOCC5)ccc(c34)C2=O)cc1 | 4.6 | 
CCN(CC)c1ccc2cc(-c3nc(-c4ccc(OC)cc4)cs3)c(=O)oc2c1 | 8.3 | 90
Cc1n[nH]c(C)c1S(=O)(=O)N1CCCC(C(=O)Nc2nccs2)C1 (stereo not given) | 1.18 | 
CCOC(=O)c1ccccc1N1C(=O)C2Sc3[nH]c(=O)sc3C(/C=C/c3ccccc3)C2C1=O (stereo not given) | 1.49 | 96.4
O=C1CCN2C=Nc3cccc4ccc1c2c34 | 2.9 | 87.9
Cc1cc(NC(=O)CN2C(=O)NC(C)(c3ccccc3)C2=O)no1 (stereo not given) | 1.46 | 103
CN1CCn2c1nc(N1CCCCC1)nc2=O | 1.43 | 96.2
CN1CCN(CCCNC(=O)c2cn(C)c3ccc(S(=O)(=O)N(C)C)cc3c2=O)CC1 | 1.33 | 94.4
CC(C)N(Cc1nc(-c2ccc3c(c2)OCO3)no1)Cc1nccn1C | 1.39 | 95.3
O=C(NCCOc1ccccc1F)Nc1ccc(Br)cc1 | 1.32 | 
COc1cc(C2C=C(c3cccs3)Nc3ncnn32)cc(OC)c1OC (stereo not given) | 9.48 | 49.2
NNc1nc2c(F)cccc2s1 | 1.44 | 90.8
CCCCNc1c2c3c(cccc3n(C)c1=O)C(=O)c1ccccc1-2 | 6.3 | 68.8
COc1cc(/C=C2\SC(=N)N(c3ccc4c(c3)OCO4)C2=O)cc(OC)c1O | 3.12 | 93.6
O=S(=O)(Nc1cc2nc3ccccc3nc2n1Cc1ccccc1)c1ccc(Cl)cc1 | 3.35 | 79.5
O=C1/C(=C/c2ccc(O)c(O)c2)Oc2cc(O)ccc21 | 3.55 | 99
Cc1nc2nc(-c3ccccc3)[nH]n2c(=O)c1C | 1.45 | 88
CN(C)c1ccc(N=Cc2nc(-c3ccccc3)oc2O)cc1 | 2.69 | 91.7
O=C(/C=C/c1ccco1)N1CCN(S(=O)(=O)c2cccs2)CC1 | 1.32 | 
COC(=O)c1cc(NC(=O)c2ccccc2)c(=O)oc1/C=C/Nc1ccc(Oc2ccccc2)cc1 | 5.74 | 96.8
CCOC(=O)c1c(-c2ccc(OC)cc2)csc1/N=C/C1=C(O)CCCC1=O | 1.59 | 91.8

SMILES | fold increase | viability [%]
Nc1cc(=O)[nH]c(SCC(=O)Nc2ccc(S(=O)(=O)N3CCOCC3)cc2)n1 | 1.33 | 102
CN1C(=O)CC(c2cn(Cc3ccccc3)c3ccccc23)C1=O (stereo not given) | 1.37 | 89.4
NC(=O)c1c(NC(=O)C2COc3ccccc3O2)sc2c1CCN(Cc1ccccc1)C2 (stereo not given) | 1.41 | 79.9
CCN(CC)c1ccc(/C=c2\sc3nc4ccccc4n3c2=O)c(O)c1 | 1.63 | 70.2
COc1ccc(C2=CC(c3cccc(OC)c3)n3nnnc3N2)cc1 (stereo not given) | 1.88 | 
COc1ccccc1NC(=O)c1cc2ccc(O)cc2o/c1=N\O | 1.39 | 79
CCSC1=N/C(=C\C=C2/Oc3ccccc3N2CC)C(=O)S1 | 2.1 | 98
Cc1nc(SCC(=O)O)c(C#N)c2c1CCCC2 | 1.35 | 98.8
CCN(CC)S(=O)(=O)c1ccc(N=Nc2c(C)[nH]n(C(N)=S)c2=O)cc1 | 1.41 | 
Cc1ccc(S(=O)(=O)Nc2nc3ccccc3nc2Nc2cccc(S(=O)(=O)N3CCCC3)c2)cc1 | 1.35 | 
COCCOC(=O)C1=C(C)NC(=O)NC1c1c(Cl)nc2c(C)cccn2c1=O (stereo not given) | 1.86 | 98.8
Oc1ccc(O)c(Cc2nc3ccccc3[nH]2)c1 | 1.35 | 84.5
Cc1cc(/C=C2\NC(=S)N(C)C2=O)ccc1N1CCCC1 | 8.61 | 85.6
COCCn1cc(C(=O)N2CCN(C)CC2)c2c3ccccc3n(C)c2c1=O | 1.44 | 92.8
CCOc1ccc(C2C=C(c3ccc(C)cc3)Nc3ncnn32)cc1 (stereo not given) | 1.96 | 101
O=C(O)c1ccccc1-c1ccc(/C=C/c2cc(C(F)(F)F)[nH]c(=O)n2)o1 | 1.32 | 
CC1(C)CC(C(=O)NCCC(c2ccccc2)c2ccco2)CCO1 (stereo not given) | 1.34 | 94.1
CN(C(=O)c1c(Cl)cnn1C)C12CC3CC(CC(C3)C1)C2 | 1.34 | 94
COc1ccccc1Cn1c(-c2ccco2)nc2nc3ccccc3nc21 | 1.82 | 88.5
CC(C)OCCCNC(=O)c1cc2c(=O)n(C)c3ccccc3c2n1C | 1.32 | 88
O=C1CC(C(=O)N(CC2CCCO2)C(C(=O)NC2CCCCC2)c2ccncc2)CS1 (stereo not given) | 1.32 | 92.7

SMILES | fold increase | viability [%]
Cc1cnc(Sc2ncccc2[N+](=O)[O-])nc1 | 1.32 | 
CCN(CC)c1ccc2cc(C(=O)Nc3ccccn3)c(=O)oc2c1 | 1.32 | 101
Cc1ccc(NC2=C/C(=N\S(=O)(=O)c3cccs3)c3ccccc3C2=O)c(C)c1 | 1.92 | 
Cc1ccccc1N1C(=O)C(Cc2ccc(F)cc2)S/C1=C(\C#N)C(N)=O (stereo not given) | 2.31 | 97.4
O=c1c(/C=C(\O)c2ccc(F)cc2)nc2ccccc2n1-c1ccccc1 | 1.44 | 92.1
Oc1ccc(-c2onc3ccc(Cl)cc23)cc1 | 1.58 | 98.5
CCCC1OC23CCCCC2C(C#N)(C#N)C1(C#N)C(=N)O3 (stereo not given) | 1.41 | 103
CN(C)c1ccc(/C=C2\NC(=S)N(Cc3ccccc3)C2=O)cc1 | 2.36 | 89
Cc1nn(C(C)C(=O)NNC(=S)Nc2ccc(F)cc2)c(C)c1[N+](=O)[O-] (stereo not given) | 1.34 | 96
Cc1c(C(=O)NC(C)CN2CCCCC2)oc2ccccc12 (stereo not given) | 1.32 | 104
CCc1ccccc1NC(=S)NC1CC2CCCC(C1)N2Cc1cccs1 (stereo not given) | 1.38 | 87.2
COc1ccc(C2C(C(C)=O)=C(O)C(=O)N2c2nccs2)cc1OC (stereo not given) | 1.33 | 100
O=C(Nc1ccccc1)c1cccc(-c2nnc(-c3ccccc3)o2)c1 | 1.16 | 
CCCCCCCCNC(=O)/C(C#N)=C/c1ccccc1[N+](=O)[O-] | 1.82 | 86.2
Cc1cc(C)nc(SCc2nnc(SCC(=O)O)n2-c2ccccc2)n1 | 1.51 | 99.4
N#C/C(=C\c1ccc(C(=O)O)cc1)c1nc2sc3c(c2c(=O)[nH]1)CCCC3 | 1.93 | 
COc1cccc(-c2nn(-c3ccccc3)cc2CNC(C)Cn2cncn2)c1 (stereo not given) | 1.53 | 90.7
COc1ccc(NC(=O)CSc2ccc3c4c(cccc24)C(=O)c2ccccc2-3)cc1 | 2.89 | 50.8
Cc1ccc(CN2CCNC2=O)cc1 | 1.33 | 97
